The whole screen tested about 340,000 compounds, of which about 6,900 (2%) were called active. Cut-off read from the data, not from the text of the source: active = inhibition above about 30%; inactive = below that, where a call was filed. This is a selection; strong and weak results do not stand in their true shares. Entries without a call were filed so in the source.
molecular target: D(2) dopamine receptor (Homo sapiens) (UniProt P14416); assay: HTS Assay for Allosteric Antagonists of the Human D2 Dopamine Receptor: Primary Screen for Antagonists; settings: HEK293 TREx D2 cells, calcium flux, dopamine EC80; at 10 µM; stronger effect = higher value; note: 0% is about no effect
Chain of UniProt P14416 (P14416 whole entry, looked up): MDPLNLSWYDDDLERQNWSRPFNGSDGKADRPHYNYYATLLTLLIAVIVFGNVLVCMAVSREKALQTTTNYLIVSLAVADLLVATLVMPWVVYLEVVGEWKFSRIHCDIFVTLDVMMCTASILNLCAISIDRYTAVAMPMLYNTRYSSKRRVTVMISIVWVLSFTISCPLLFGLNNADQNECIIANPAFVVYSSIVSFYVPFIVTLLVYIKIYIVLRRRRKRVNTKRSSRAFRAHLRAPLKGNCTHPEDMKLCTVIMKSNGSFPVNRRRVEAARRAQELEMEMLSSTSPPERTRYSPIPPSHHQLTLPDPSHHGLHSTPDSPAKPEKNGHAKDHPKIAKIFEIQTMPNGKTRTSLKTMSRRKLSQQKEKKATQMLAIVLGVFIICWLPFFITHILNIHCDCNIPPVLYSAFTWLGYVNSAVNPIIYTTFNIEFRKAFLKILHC
How it was run: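 Compounds are added to dye-loaded, induced HEK293 T-REx cells coupled to calcium release via D2; after a 3 min kinetic read an EC80 dopamine stimulus is given and fluorescence is recorded for 3 more min.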

Structure (SMILES)	inhibition
Cc1cccc(NC(=O)CN2C(=O)C(c3ccccc3)=NC23CCC(C)CC3)c1 (configuration not stated)	-6.38%
CC(=O)c1cccc(-n2c(=O)c3c4c(sc3n(Cc3cccc(C)c3)c2=O)CN(C(C)=O)CC4)c1	7.24%
Cc1cc(C)n(CCc2nc3c4ccccc4nc(N4CCN(c5cccc(C)c5C)CC4)n3n2)n1	-6.34%
CCn1cc2nc(SCC(=O)Nc3ccc(C)cc3)n(Cc3ccc(C)cc3)c(=O)c2n1	-5.64%
Cc1[nH]c2ccc(Br)cc2c1CCNC(=O)c1cc2ccccc2oc1=O	11.6%
COC(=O)CN1C(=O)C(C)(C)c2cc(S(=O)(=O)Nc3ccc(Br)cc3F)ccc21	-5.06%
Cc1cc(F)ccc1Oc1cc(NN2CCCCC2)c([N+](=O)[O-])cc1[N+](=O)[O-]	active: 30.4%
CCN(CC)c1ccc(NC(=O)CN2CCN(c3ccccc3F)CC2)cc1	7.74%
CCOc1ccc(C2=NC(c3cccs3)=Nc3ccc(CC)cc3N2)cc1OCC	3.77%
Cc1ccc(CCNC(=O)c2ccc3[nH]c(C)c(C)c3c2)cc1	23.5%
Cc1cc(C)cc(-n2cnc3cc(C(=O)NC4CCCCCC4)ccc32)c1	-12%
Cc1cc(OCC(=O)NC2CCN(Cc3ccccc3)CC2)c2c(C)cc(=O)oc2c1	active: 54.3%
COc1ccc(CCNC(=O)c2cc3n(n2)CCCN(Cc2ccc(C)cc2)C3=O)cc1OC	2.26%
O=C(NCCN1CCN(c2cccc(Cl)c2)CC1)c1ccc(CSc2nc3ccncc3[nH]2)cc1	active: 86.2%
CCCCN(C)CCCNC(=O)C1CCN(S(=O)(=O)CC)CC1	-26.5%
Cc1c2cnn(CC(=O)N3CCN(c4ccccc4)CC3)c(=O)c2c(C)n1Cc1ccccc1Cl	20.9%
CSc1ncc(Cl)c(C(=O)Nc2ccc(S(=O)(=O)Nc3nccc(C)n3)cc2)n1	-0.934%
CCOC(=O)C1(CC2CC2)CCN(Cc2ccc3cccc(F)c3n2)CC1	active: 65.2%
CCCCN(C)CCCNC(=O)CN1N=C(c2ccc(OC)cc2)CCC1=O	-19.9%
CC(=O)C1=C(c2ccccc2)N(C(C)=O)n2c(nnc2C2CCCCC2)S1	10.7%
CC(=O)c1ccc(NC(=O)CCc2c(C)nc3c(c2C)c(=O)n(C)c(=O)n3C)cc1	-0.137%
COc1ccc(NC(=O)c2cc(C)nc3c2c(C)nn3-c2ccc(C)cc2)cc1OC	7.02%
CCOc1ccc(NC(=O)CN2CCN(S(=O)(=O)c3ccc(OC)cc3)CC2)cc1	3.99%
CCOc1cc(OCC)cc(C(=O)Nc2cccc(-c3nc4ccccc4[nH]3)c2)c1	13.3%
C=CCC(CC=C)(CNC(=O)C(=O)Nc1ccc(C)cc1)c1ccccc1	-12.5%

Structure (SMILES)	inhibition
COc1cccc(Cn2c(=O)n(-c3cccc(Cl)c3)c(=O)c3c4c(sc32)CN(C(C)=O)CC4)c1	2.65%
COc1ccccc1-c1nnc(C2CCN(C(=O)c3cccc(C)c3)CC2)o1	4.6%
O=C(NCc1ccccc1)C(=O)NCC(c1ccco1)S(=O)(=O)c1ccc(Cl)cc1 (configuration not stated)	1.24%
CCn1c(=O)cc(OCC(=O)NCc2ccccc2OC)c2ccccc21	-2.05%
Cc1ccccc1Nc1nn2c(=O)c3ccc(C(=O)NCc4ccccc4)cc3nc2s1	6.72%
CCc1nc2c(cnn2-c2ccc(C)cc2)c(=O)n1Cc1ccccc1	-5.44%
CCOC(=O)N1CCc2c(sc3c2c(=O)n(Cc2ccccc2)c(=O)n3Cc2cccc(C)c2)C1	7.66%
Cc1ccc(-c2onc(C)c2C)cc1S(=O)(=O)NCc1ccc(N(C)C)cc1	7.78%
CCc1ccc(NC(=O)Cn2c(=O)n(CCCCC(=O)NCc3ccccc3Cl)c(=O)c3ccccc32)cc1	-5.36%
Cc1ccc(NC(=O)c2oc3ccccc3c2NC(=O)Cc2ccccc2)cc1	6.61%
Cc1cc(C)c(C)c(OCCCCN(C)Cc2ccccc2)c1	active: 30.6%
CCOc1ccc(S(=O)(=O)N2CCN(c3cccc(C(F)(F)F)c3)CC2)cc1OCC	5.33%
COc1ccc2c(c1)CCc1sc(NC(=O)c3cccc(Br)c3)nc1-2	8.47%
Cc1cc(C)c(NC(=O)C2CCCN(S(=O)(=O)c3c(C)noc3/C=C/N(C)C)C2)c(C)c1 (configuration not stated)	active: 33.4%
COc1ccccc1NC(=O)CSC1=Nc2ccccc2C2=NC(Cc3ccccc3)C(=O)N12 (configuration not stated)	-14.6%
CCN(CC)CCNC(=O)C(=O)NCC(c1ccc2c(c1)OCO2)N1CCOCC1 (configuration not stated)	2.58%
COCc1cc(C)nc2c1C(=O)NC(c1ccc(C)cc1)N2Cc1ccccc1 (configuration not stated)	-22.4%
O=C(CSc1cn(CC(=O)N2CCCCC2)c2ccccc12)NCc1ccccc1	9.08%
CCCN1C(=O)c2[nH]nc(-c3ccccc3)c2C1c1cccc(O)c1 (configuration not stated)	-9.62%
CCOc1ccc(-c2nnc(SCC(=O)NCc3ccccc3Cl)o2)cc1	-15.5%
O=C(Cn1cc(SCc2c(F)cccc2Cl)c2ccccc21)N1CCCCC1	9.2%
Cn1c(=O)n(Cc2ccccc2)c(=O)c2c1nc1n2CCN1c1ccccc1	5.92%
CCN(CC)CCNC(=O)CN1N=C(c2ccc(OC)cc2)CCC1=O	6.77%
Cc1cccn2cc(-c3cccc(NC(=O)C(C)C)c3)nc12	6.65%
Cc1cc(Cl)ccc1OCC(=O)N(Cc1sccc1C)C1CCS(=O)(=O)C1 (configuration not stated)	4.04%

Structure (SMILES)	inhibition
CCC(=O)Nc1ccc2nc(SCCOc3ccc(C)cc3OC)sc2c1	2.97%
CCn1c(=O)cc(OCC(=O)N2CCN(c3ccc(C)cc3)C(C)C2)c2ccccc21 (configuration not stated)	-10.2%
CC(=O)c1ccc(NC(=O)CSc2nc(-c3ccc(C)cc3)nc3c2c(=O)n(C)c(=O)n3C)cc1	0.653%
CCCOc1cccc(C(=O)N(Cc2sccc2C)C2CCS(=O)(=O)C2)c1 (configuration not stated)	-16.7%
COc1ccc(CNC(=O)c2cnc(N(C)C)nc2)cc1	3.71%
CC(C)OCCCNC(=O)CN1C(=O)c2cccnc2Sc2ccccc21	0.217%
CCCCOc1ccc(C(=O)N2CCCCC2CCN2CCOCC2)cc1 (configuration not stated)	7.1%
CC1CCC(NC(=O)c2ccc(CS(=O)(=O)c3ccc(Cl)cc3)o2)CC1 (configuration not stated)	10.2%
CCN(CC)S(=O)(=O)c1ccc(C(=O)NCCSc2c(-c3ccc(F)cc3)[nH]c3ccccc23)cc1	-3.39%
Cc1ccc(-c2cn3cccnc3n2)cc1NC(=O)Nc1ccc(F)cc1	-14.6%
O=C1CSC(c2cccc([N+](=O)[O-])c2)N1Cc1ccccc1 (configuration not stated)	active: 30.3%
CC(C)(C)OC(=O)N1CCC(c2c(C(=O)N3CCN(c4ccccn4)CC3)cnn2-c2ccc(F)cc2)CC1	12.1%
COc1ccc2c(c1)c(=O)c(S(=O)(=O)c1ccc(F)cc1)cn2Cc1ccccc1Cl	-4.82%
COc1cccc2c(C)cc3nnc(SCC(=O)Nc4ccc(C)cc4)n3c12	0.186%
COCCNC(=O)CN1C(=O)c2cccnc2Sc2ccccc21	19.9%
O=C(Cn1ncc2c1-c1ccccc1OC2)N1CCN(c2ccccc2)CC1	-2.55%
O=C(c1ccc2c(c1)OCO2)c1cn(Cc2ccc(Cl)cc2)c2ccc(F)cc2c1=O	-9.38%
COCCNC(=O)c1sc2ncccc2c1-n1c(C)ccc1C	20.2%
COc1cc(NC(=O)C2CCN(S(=O)(=O)Cc3ccccc3)CC2)c(OC)cc1Cl	0.26%
CCC(C)n1c(=O)c2sccc2n2c(CCCC(=O)NCc3ccccc3Cl)nnc12 (configuration not stated)	2.61%
Cc1cccc(N(C)S(=O)(=O)c2nnc(NC(=O)c3cccs3)s2)c1	-9.63%
CCCCCOC(=O)NCCOC(=O)Nc1ccc(C(=O)OCC)cc1	active: 33%
Cc1ccc(-c2nnc(NC(=O)Cc3ccc(F)cc3)o2)c(C)c1	active: 66.8%
CCOC(=O)c1cccc(NC(=O)Cn2c(=O)c3cccn3c3ccccc32)c1	8.86%
Cc1ccc(C(=O)c2sc(Nc3ccccc3)c(S(=O)(=O)c3ccccc3)c2N)c(C)c1	-4.96%

Structure (SMILES)	inhibition
Cc1cc(C)n2nc(CNC(=O)c3c(F)cccc3F)nc2n1	-5.74%
COc1ccccc1CNC(=O)c1ccc2[nH]c(C)c(C)c2c1	8.74%
COc1ccc(NC(=O)c2nnn(Cc3nc(-c4cc(OC)c(OC)c(OC)c4)oc3C)c2C)cc1Cl	-2.55%
COc1ccc(OC)c(NS(=O)(=O)c2ccc(-n3cccn3)cc2)c1	11.1%
CCCCNC(=O)C(CC)Sc1nc2ccccc2c(=O)n1Cc1ccco1 (configuration not stated)	10.3%
COCCCNC(=O)Cn1c(=O)n(-c2ccc(C)c(C)c2)c(=O)c2c3c(sc21)CCCCC3	-6.66%
COc1ccccc1NC(=O)C1=C(C)Nc2nc(SCc3ccccc3)nn2C1c1cccc(O)c1 (configuration not stated)	21.6%
COc1ccc(NC(=O)c2ccc(NC(=O)N3CCSc4ncccc43)cc2)cc1	-7.12%
COCCNC(=O)C1CCN(Cc2cc3ccccc3n2Cc2ccc(C)cc2)CC1	0.425%
COCCn1c(CNC(=O)c2cccc(C)c2)nc2cccnc21	-9.19%
C/C(=N\Nc1ccc(Cl)c(C(=O)O)c1)c1ccc(N2CCOCC2)cc1	active: 33.1%
O=C1CSC(c2ccccc2)N1CC12CC3CC(CC(O)(C3)C1)C2 (configuration not stated)	active: 37.5%
CCOC(=O)c1c(NC(=O)CSc2cn(CCNC(=O)c3ccc(OC)cc3)c3ccccc23)sc2c1CCCC2	3.5%
COc1ccc(C2c3c(n(C)c4ccccc34)C(=O)N2CC(=O)Nc2cccc(Cl)c2)cc1 (configuration not stated)	6.18%
Cc1cccc(CCNC(=O)c2cc3c(s2)-c2c(C)cccc2OC3)c1	-6.86%
COc1ccc(CNC(=O)c2ccc(-c3nc(CSc4ccc(C)cc4)c(C)o3)cc2)c(OC)c1	3.78%
Cc1ccc2c(c1)N(C(=O)Nc1cccc3c1CCCC3)CCO2	-18.8%
O=C(Nc1ccc2c(c1)OCCO2)c1cc2ccccc2o1	active: 32.6%
CCCN1CCN(C(=O)Cn2c(-c3cccs3)cc3cc(F)ccc32)CC1	-0.495%
O=C(NCCc1ccccc1)c1ccc(Nc2nc3ccccc3n3nnnc23)cc1	-7.23%
O=C(CN1C(=O)CC(c2ccccc2)=Nc2ccccc21)Nc1ccc(Br)cc1	-3.26%
CNC(=O)c1ccc2c(c1)N(Cc1cc(C)ccc1C)C(=O)c1ccccc1S2	-26.1%
